Measurements from PubChem BioAssay AID463173 (ICCB-Longwood Screening Facility, Harvard Medical School, 2010).
Among all 52,000 compounds or so, about 1,700 (3.3%) were called active. Rule as the data show it: active = survival mostly below about 52% (no sharp cut-off); inactive = mostly above about 56%. The list shows a part of the results.

system: Wild type; assay: growth inhibition of S. aureus wild type versus tarO mutant, primary screen, teichoic acid synthesis inhibitors, RN4220, OD600 (AID 463173); conditions: S. aureus RN4220 wild type/DeltatarO growth, OD600, 18 h, hits give low values, screened at 18.75 µg/mL (by protocol)

Structure (SMILES)	survival
CC(=O)c1ccc(Nc2nc3c(S(=O)(=O)c4ccccc4)nnn3c3ccc(Cl)cc23)cc1	inactive: 84%
CCSc1oc(-c2ccco2)nc1S(=O)(=O)c1ccc(Br)cc1	inactive: 65%
CCN1c2ccccc2-c2nc(SCC(=O)NCc3ccccc3)ncc2S1(=O)=O	inactive: 74%
COC(=O)CCNC(=O)NC(CCC(C)C)c1c(-n2cccc2)sc2c1CCN(C)C2 (centres undefined)	inactive: 83%
CCCN(CCC)C(=O)Cn1c(=O)n(-c2ccc(Cl)cc2)c(=O)c2c3c(sc21)CCCCC3	inactive: 86%
Cc1ccc(-c2nn(-c3ccc(F)cc3)c3c2cnc2cc(F)c(F)cc23)cc1	inactive: 76%
CCCc1cc(=O)[nH]c(SCC(=O)N2CCN(c3ccccc3OC)CC2)n1	inactive: 102%
COc1cc(NC(=O)c2cc3c(s2)-c2ccccc2OC3)cc(OC)c1OC	inactive: 53%
COc1ccccc1NC(=O)Cn1c(=O)n(CCC(=O)NCC2CCCO2)c(=O)c2cc(OC)c(OC)cc21 (centres undefined)	inactive: 127%
COc1ccccc1-c1cc2nc(C)c(CCC(=O)O)c(C)n2n1	inactive: 72%
CCC(=O)N1CCc2cc(S(=O)(=O)NCCC(=O)Nc3cc(C)ccc3OC)ccc21	inactive: 117%
Cc1ccc2nc(-c3ccc(O)cc3)c(Nc3ccc(Cl)cc3)n2c1	inactive: 69%
CC(=O)c1cccc(Nc2nc(-c3cccc(C)c3)nc3ccccc23)c1	inactive: 31%
Cc1nn(-c2ccc(N3CCCCC3)nn2)c(C)c1CCC(=O)NCc1ccc(OC(C)C)cc1	inactive: 84%
Cc1ccccc1C(=O)Nc1ccc(OCc2cc(=O)n3ccccc3n2)cc1	inactive: 53%
Cc1ccc(NC(=O)Cn2cc(S(=O)(=O)N3CCCC3)c(S(=O)(=O)N3CCCC3)c2)cc1F	inactive: 126%
Cc1ccc(CCNC(=O)c2c[nH]c3ccc(S(=O)(=O)Nc4ccc(C)cc4C)cc3c2=O)cc1	inactive: 126%
COc1cccc(CN(Cc2ccco2)C(c2ccc(OC)c(OC)c2)c2nnnn2Cc2ccccc2)c1 (centres undefined)	inactive: 115%
Cc1ccc(C)c(S(=O)(=O)c2nnn3c2nc(Nc2ccc(C)c(C)c2)c2ccccc23)c1	inactive: 115%
N=C1CNc2ccccc2C(=O)O1	inactive: 98%
COc1ccc(-c2nnn(CC(=O)N(CC3CCCO3)C(C(=O)NC3CCCCC3)c3cccs3)n2)cc1 (centres undefined)	inactive: 103%
COc1cccc(NC(=O)CCN2CCN(c3ccccc3)CC2)c1	inactive: 70%
COc1cccc(C(=O)NCC(c2ccc(N(C)C)cc2)N2CCc3ccccc32)c1 (centres undefined)	inactive: 148%
CCc1ccccc1NC(=O)Cn1nnc(-c2nc(-c3ccc(C)cc3)no2)c1N	inactive: 63%
